Assay results as given in the supplement of paper PMC8728848.
The list shows a part of the results.

Assays:
Experiment in all cases: glycan array binding signal (z-score within array); higher = stronger binding
Settings in all cases: glycan notation: IUPAC condensed, linker removed
[1] = biological target: Fuc(a1-2)Gal
Method in brief: (§1)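 The binding signal is a Z-score computed within each array and averaged over linkers. Arrays of the same protein sequence at different concentrations or buffers were also averaged together. Data originate from 3228 arrays in the Consortium for Functional Glycomics database, kept only where the protein sequence was available.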

[2] = biological target: Fuc(a1-2)Gal(b1-3)GalNAc
Method in brief: as §1

[3] = biological target: Fuc(a1-2)Gal(b1-3)GalNAc(b1-3)Gal
Method in brief: as §1

[4] = biological target: Fuc(a1-2)Gal(b1-3)GalNAc(b1-3)Gal(a1-4)Gal(b1-4)Glc
Method in brief: as §1

[5] = biological target: Fuc(a1-2)Gal(b1-3)GalNAc(b1-4)[Neu5Ac(a2-3)]Gal(b1-4)Glc
Method in brief: as §1

[6] = biological target: Fuc(a1-2)Gal(b1-3)GlcNAc
Method in brief: as §1

[7] = biological target: Fuc(a1-2)Gal(b1-3)GlcNAc(b1-2)Man(a1-3)[Fuc(a1-2)Gal(b1-3)GlcNAc(b1-2)Man(a1-6)]Man(b1-4)GlcNAc(b1-4)GlcNAc
Method in brief: as §1

[8] = biological target: Fuc(a1-2)Gal(b1-3)GlcNAc(b1-3)Gal(b1-4)Glc
Method in brief: as §1

[9] = biological target: Fuc(a1-2)Gal(b1-3)GlcNAc(b1-3)[Gal(b1-4)[Fuc(a1-3)]GlcNAc(b1-6)]Gal(b1-4)Glc
Method in brief: as §1

[10] = biological target: Fuc(a1-2)Gal(b1-3)[Fuc(a1-4)]GlcNAc
Method in brief: as §1

[11] = biological target: Fuc(a1-2)Gal(b1-3)[Fuc(a1-4)]GlcNAc(b1-2)Man(a1-3)[Fuc(a1-2)Gal(b1-3)[Fuc(a1-4)]GlcNAc(b1-2)Man(a1-6)]Man(b1-4)GlcNAc(b1-4)GlcNAc
Method in brief: as §1

[12] = biological target: Fuc(a1-2)Gal(b1-4)Glc
Method in brief: as §1

[13] = biological target: Fuc(a1-2)Gal(b1-4)Glc6S
Method in brief: as §1

[14] = biological target: Fuc(a1-2)Gal(b1-4)GlcNAc
Method in brief: as §1

[15] = biological target: Fuc(a1-2)Gal(b1-4)GlcNAc(b1-2)Man(a1-3)[Fuc(a1-2)Gal(b1-4)GlcNAc(b1-2)Man(a1-6)]Man(b1-4)GlcNAc(b1-4)GlcNAc
Method in brief: as §1

[16] = biological target: Fuc(a1-2)Gal(b1-4)GlcNAc(b1-3)Gal(b1-4)GlcNAc
Method in brief: as §1

[17] = biological target: Fuc(a1-2)Gal(b1-4)GlcNAc(b1-3)Gal(b1-4)GlcNAc(b1-3)Gal(b1-4)GlcNAc
Method in brief: as §1

[18] = biological target: Fuc(a1-2)Gal(b1-4)GlcNAc6S
Method in brief: as §1

[19] = biological target: Fuc(a1-2)Gal(b1-4)[Fuc(a1-3)]GlcNAc
Method in brief: as §1

[20] = biological target: Fuc(a1-2)Gal(b1-4)[Fuc(a1-3)]GlcNAc(b1-2)Man(a1-3)[Fuc(a1-2)Gal(b1-4)[Fuc(a1-3)]GlcNAc(b1-2)Man(a1-6)]Man(b1-4)GlcNAc(b1-4)GlcNAc
Method in brief: as §1

[21] = biological target: Fuc(a1-2)Gal(b1-4)[Fuc(a1-3)]GlcNAc(b1-3)Gal(b1-4)[Fuc(a1-3)]GlcNAc
Method in brief: as §1

[22] = biological target: Fuc(a1-2)Gal(b1-4)[Fuc(a1-3)]GlcNAc(b1-3)Gal(b1-4)[Fuc(a1-3)]GlcNAc(b1-3)Gal(b1-4)[Fuc(a1-3)]GlcNAc
Method in brief: as §1

[23] = biological target: Fuc(a1-2)Gal6S(b1-4)Glc
Method in brief: as §1

[24] = biological target: Fuc(a1-2)Gal6S(b1-4)Glc6S
Method in brief: as §1

[25] = biological target: Fuc(a1-2)Gal6S(b1-4)GlcNAc
Method in brief: as §1

[26] = biological target: Fuc(a1-2)[Gal(a1-3)]Gal
Method in brief: as §1

[27] = biological target: Fuc(a1-2)[Gal(a1-3)]Gal(b1-3)GlcNAc
Method in brief: as §1

[28] = biological target: Fuc(a1-2)[Gal(a1-3)]Gal(b1-3)GlcNAc(b1-2)Man(a1-3)[Fuc(a1-2)[Gal(a1-3)]Gal(b1-3)GlcNAc(b1-2)Man(a1-6)]Man(b1-4)GlcNAc(b1-4)GlcNAc
Method in brief: as §1

[29] = biological target: Fuc(a1-2)[Gal(a1-3)]Gal(b1-4)Glc
Method in brief: as §1

[30] = biological target: Fuc(a1-2)[Gal(a1-3)]Gal(b1-4)GlcNAc
Method in brief: as §1

[31] = biological target: Fuc(a1-2)[Gal(a1-3)]Gal(b1-4)GlcNAc(b1-2)Man(a1-3)[Fuc(a1-2)[Gal(a1-3)]Gal(b1-4)GlcNAc(b1-2)Man(a1-6)]Man(b1-4)GlcNAc(b1-4)GlcNAc
Method in brief: as §1

[32] = biological target: Fuc(a1-2)[Gal(a1-3)]Gal(b1-4)[Fuc(a1-3)]GlcNAc
Method in brief: as §1

[33] = biological target: Fuc(a1-2)[Gal(a1-4)]Gal(b1-4)GlcNAc
Method in brief: as §1

[34] = biological target: Fuc(a1-2)[GalNAc(a1-3)]Gal
Method in brief: as §1

[35] = biological target: Fuc(a1-2)[GalNAc(a1-3)]Gal(b1-3)GlcNAc
Method in brief: as §1

[36] = biological target: Fuc(a1-2)[GalNAc(a1-3)]Gal(b1-3)GlcNAc(b1-2)Man(a1-3)[Fuc(a1-2)[GalNAc(a1-3)]Gal(b1-3)GlcNAc(b1-2)Man(a1-6)]Man(b1-4)GlcNAc(b1-4)GlcNAc
Method in brief: as §1

[37] = biological target: Fuc(a1-2)[GalNAc(a1-3)]Gal(b1-4)Glc
Method in brief: as §1

[38] = biological target: Fuc(a1-2)[GalNAc(a1-3)]Gal(b1-4)GlcNAc
Method in brief: as §1

[39] = biological target: Fuc(a1-2)[GalNAc(a1-3)]Gal(b1-4)GlcNAc(b1-2)Man(a1-3)[GalNAc(a1-3)[Fuc(a1-2)]Gal(b1-4)GlcNAc(b1-2)Man(a1-6)]Man(b1-4)GlcNAc(b1-4)GlcNAc
Method in brief: as §1

[40] = biological target: Fuc(a1-2)[GalNAc(a1-3)]Gal(b1-4)GlcNAc(b1-3)Gal(b1-4)GlcNAc
Method in brief: as §1

[41] = biological target: Fuc(a1-2)[GalNAc(a1-3)]Gal(b1-4)GlcNAc(b1-3)Gal(b1-4)GlcNAc(b1-3)Gal(b1-4)GlcNAc
Method in brief: as §1

[42] = biological target: Fuc(a1-2)[GalNAc(a1-3)]Gal(b1-4)[Fuc(a1-3)]GlcNAc
Method in brief: as §1

[43] = biological target: Fuc(a1-2)[GalNAc(a1-4)]Gal(b1-4)GlcNAc
Method in brief: as §1

[44] = biological target: Fuc(a1-2)[GalNAc(b1-3)]Gal
Method in brief: as §1

[45] = biological target: Fuc(a1-3)GlcNAc
Method in brief: as §1

B1: HHL-1 (Homo sapiens), P07306 (protein)
chain: TKEYQDLQHLDNEESDHHQLRKGPPPPQPLLQRLCSGPRLLLLSLGLSLLLLVVVCVIGSQNSQLQEELRGLRETFSNFTASTEAQVKGLSTQGGNVGRKMKSLESQLEKQQKDLSEDHSSLLLHVKQFVSDLRSLSCQMAALQGNGSERTCCPVNWVEHERSCYWFSRSGKAWADADNYCRLEDAHLVVVTSWEEQKFVQHHIGPVNTWMGLHDQNGPWKWVDGTDYETGFKNWRPEQPDDWYGHGLGGGEDCAHFTDDGRWNDDVCQRPYRWVCETELDKASQEPPLL
- glycan array binding signal (z-score) [1]: -0.192
- glycan array binding signal (z-score) [2]: -0.124
- glycan array binding signal (z-score) [3]: 1.27
- glycan array binding signal (z-score) [4]: -0.576
- glycan array binding signal (z-score) [5]: 0.054
- glycan array binding signal (z-score) [6]: -0.371
- glycan array binding signal (z-score) [7]: -0.526
- glycan array binding signal (z-score) [8]: -0.444
- glycan array binding signal (z-score) [9]: 0.628
- glycan array binding signal (z-score) [10]: 0.785
- glycan array binding signal (z-score) [11]: -0.47
- glycan array binding signal (z-score) [12]: -0.517
- glycan array binding signal (z-score) [13]: 0.24
- glycan array binding signal (z-score) [14]: -0.433
- glycan array binding signal (z-score) [15]: -0.533
- glycan array binding signal (z-score) [16]: -0.281
- glycan array binding signal (z-score) [17]: -0.319
- glycan array binding signal (z-score) [18]: -0.56
- glycan array binding signal (z-score) [19]: -0.054
- glycan array binding signal (z-score) [20]: 0.169
- glycan array binding signal (z-score) [21]: -0.55
- glycan array binding signal (z-score) [22]: 0.511
- glycan array binding signal (z-score) [23]: 1.57
- glycan array binding signal (z-score) [24]: 0.786
- glycan array binding signal (z-score) [25]: 0.321
- glycan array binding signal (z-score) [26]: -0.251
- glycan array binding signal (z-score) [27]: -0.506
- glycan array binding signal (z-score) [28]: -0.472
- glycan array binding signal (z-score) [29]: -0.484
- glycan array binding signal (z-score) [30]: -0.546
- glycan array binding signal (z-score) [31]: -0.52
- glycan array binding signal (z-score) [32]: -0.242
- glycan array binding signal (z-score) [33]: -0.48
- glycan array binding signal (z-score) [34]: -0.312
- glycan array binding signal (z-score) [35]: -0.025
- glycan array binding signal (z-score) [36]: -0.479
- glycan array binding signal (z-score) [37]: -0.506
- glycan array binding signal (z-score) [38]: -0.34
- glycan array binding signal (z-score) [39]: -0.353
- glycan array binding signal (z-score) [40]: -0.072
- glycan array binding signal (z-score) [41]: -0.3
- glycan array binding signal (z-score) [42]: -0.532
- glycan array binding signal (z-score) [43]: 7.69
- glycan array binding signal (z-score) [44]: 3.59
- glycan array binding signal (z-score) [45]: -0.527
